{"source": "PubChem BioAssay (NCI)", "experiment_in_all_cases": "NCI tumour cell line growth inhibition, 48 h", "key": {"UO-31 renal": {"system": "UO-31 renal"}, "IGROV1 ovarian": {"system": "IGROV1 ovarian"}, "DU-145 prostate": {"system": "DU-145 prostate"}, "NCI-H23 lung": {"system": "NCI-H23 lung"}, "HCT-15 colon": {"system": "HCT-15 colon"}, "HCT-116 colon": {"system": "HCT-116 colon"}, "HT29 colon": {"system": "HT29 colon"}, "T-47D breast": {"system": "T-47D breast"}, "DMS 273 small cell lung": {"system": "DMS 273 small cell lung"}, "K-562 leukemia": {"system": "K-562 leukemia"}, "SK-OV-3 ovarian": {"system": "SK-OV-3 ovarian"}, "DMS 114 small cell lung": {"system": "DMS 114 small cell lung"}, "HL-60(TB) leukemia": {"system": "HL-60(TB) leukemia"}, "SF-539 CNS": {"system": "SF-539 CNS"}, "BT-549 breast": {"system": "BT-549 breast"}, "SN12C renal": {"system": "SN12C renal"}, "A498 renal": {"system": "A498 renal"}, "SF-295 CNS": {"system": "SF-295 CNS"}, "SK-MEL-5 melanoma": {"system": "SK-MEL-5 melanoma"}, "HOP-92 NSCLC": {"system": "HOP-92 NSCLC"}, "PC-3 prostate": {"system": "PC-3 prostate"}, "RPMI-8226 leukemia": {"system": "RPMI-8226 leukemia"}, "MOLT-4 leukemia": {"system": "MOLT-4 leukemia"}, "HOP-62 NSCLC": {"system": "HOP-62 NSCLC"}, "SK-MEL-2 melanoma": {"system": "SK-MEL-2 melanoma"}, "ACHN renal": {"system": "ACHN renal"}, "SF-268 CNS": {"system": "SF-268 CNS"}, "A549 NSCLC": {"system": "A549 NSCLC"}, "SK-MEL-28 melanoma": {"system": "SK-MEL-28 melanoma"}, "OVCAR-5 ovarian": {"system": "OVCAR-5 ovarian"}, "M14 melanoma": {"system": "M14 melanoma"}, "MCF7 breast": {"system": "MCF7 breast"}, "HCC-2998 colon": {"system": "HCC-2998 colon"}, "LOX IMVI melanoma": {"system": "LOX IMVI melanoma"}, "EKVX NSCLC": {"system": "EKVX NSCLC"}, "UACC-62 melanoma": {"system": "UACC-62 melanoma"}, "786-0 renal": {"system": "786-0 renal"}, "KM12 colon": {"system": "KM12 colon"}, "TK-10 renal": {"system": "TK-10 renal"}, "CAKI-1 renal": {"system": "CAKI-1 renal"}, "MDA-N": {"system": "MDA-N"}, "SR leukemia": {"system": "SR leukemia"}, "NCI-H226 lung": {"system": "NCI-H226 lung"}, "NCI-H522 lung": {"system": "NCI-H522 lung"}, "OVCAR-3 ovarian": {"system": "OVCAR-3 ovarian"}}, "note": "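Grown in 96-well plates, cells were treated for 48 hours with each compound at five concentrations. Insufficient inhibition: endpoint recorded as highest concentration tested. Here, GI50 denotes the concentration required for 50% inhibition of growth.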 A number of entries come with more than one value. Only these are listed. An entry can have further records. For some of these results: The tests behind the records often covered other concentration ranges, which the source does not state; a value can be the end of its range. For some of these results: The records of an entry are repeated measurements in other runs, samples, wells, individuals or studies. Records carry a tag for their origin. Letters count within one entry.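 TGI: total growth inhibition.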"}
{"smiles": "CCOC(=O)Nc1cc2c(c(N)n1)N=C(c1ccccc1)CN2", "values": [{"measurement": "TGI", "setting": "UO-31 renal", "value": "226 nM and 10.8 µM"}, {"measurement": "TGI", "setting": "IGROV1 ovarian", "value": "0.926 nM and 984 nM"}, {"measurement": "TGI", "setting": "DU-145 prostate", "value": "27.5 nM and 14.6 µM"}, {"measurement": "TGI", "setting": "NCI-H23 lung", "value": "142 nM and > 32.3 µM"}, {"measurement": "TGI", "setting": "HCT-15 colon", "value": "1.59 nM and 24.7 µM"}, {"measurement": "TGI", "setting": "HCT-116 colon", "value": "10.5 nM and 12.2 µM"}, {"measurement": "TGI", "setting": "HT29 colon", "value": "< 0.1 nM and 28.8 nM"}]}
{"smiles": "C=C1C(=O)O[C@H]2C3OC3(C)CC/C=C(/C(=O)OC)[C@@H](OC(C)=O)[C@H](OC(=O)C3(C)OC3C)[C@H]12", "note": "(stereo partly specified)", "values": [{"measurement": "TGI", "setting": "T-47D breast", "value": "2.93 µM and 32.3 µM"}]}
{"smiles": "NCCNc1ccc(NCCN)c2c1C(=O)c1c(O)ccc(O)c1C2=O", "values": [{"measurement": "TGI", "setting": "DMS 273 small cell lung", "value": "1.79 nM and 269 nM"}, {"measurement": "GI50", "setting": "K-562 leukemia", "value": "390 nM and 10.2 nM"}, {"measurement": "TGI", "setting": "SK-OV-3 ovarian", "value": "1.41 µM and 80.1 nM"}, {"measurement": "TGI", "setting": "DMS 114 small cell lung", "value": "2.27 nM and 159 nM"}, {"measurement": "TGI", "setting": "HL-60(TB) leukemia", "value": "4.73 µM and < 25.5 nM"}]}
{"smiles": "CC(=O)OC1(C)CC(C)C(=O)C(C(O)CC2CC(=O)NC(=O)C2)C1", "note": "(stereo unspecified)", "values": [{"measurement": "TGI", "setting": "SF-539 CNS", "value": "871 nM and 37.8 nM"}, {"measurement": "TGI", "setting": "BT-549 breast", "value": "426 nM and 14.4 µM"}, {"measurement": "TGI", "setting": "NCI-H23 lung", "value": "699 nM and 27.8 nM"}, {"measurement": "TGI", "setting": "SN12C renal", "value": "830 nM and 19.6 nM"}]}
{"smiles": "CC(=O)OCC1OC([S-])C(OC(C)=O)C(OC(C)=O)C1OC(C)=O.[Au+].c1ccc(CN2[CH-]N(Cc3ccccc3)C(c3ccccc3)=C2c2ccccc2)cc1", "values": [{"measurement": "GI50", "setting": "A498 renal", "value": "7.74 µM [sample A, 1 test] and 240 nM [sample B, mean of 2 tests]"}, {"measurement": "TGI", "setting": "A498 renal", "value": "20.4 µM [sample A, 1 test] and 1.11 µM [sample B, mean of 2 tests]"}, {"measurement": "GI50", "setting": "SF-295 CNS", "value": "6.12 µM [sample A, 1 test] and 223 nM [sample B, mean of 2 tests]"}, {"measurement": "TGI", "setting": "SK-MEL-5 melanoma", "value": "17.4 µM [sample A, 1 test] and 1.72 µM [sample B, mean of 2 tests]"}, {"measurement": "GI50", "setting": "SN12C renal", "value": "2.06 µM [sample A, 1 test] and 193 nM [sample B, mean of 2 tests]"}, {"measurement": "GI50", "setting": "HOP-92 NSCLC", "value": "1.81 µM [sample A, 1 test] and 127 nM [sample B, mean of 2 tests]"}, {"measurement": "GI50", "setting": "PC-3 prostate", "value": "2.1 µM [sample A, 1 test] and 201 nM [sample B, mean of 2 tests]"}, {"measurement": "GI50", "setting": "RPMI-8226 leukemia", "value": "2.53 µM [sample A, 1 test] and 219 nM [sample B, mean of 2 tests]"}, {"measurement": "TGI", "setting": "MOLT-4 leukemia", "value": "> 100 µM [sample A, 1 test] and 6.87 µM [sample B, mean of 2 tests]"}]}
{"smiles": "COc1ccc(C2CC(c3ccc4ccccc4c3)=NN2c2nc(O)c(C3=c4cc(Cl)ccc4=NC3=O)s2)cc1", "note": "(stereo unspecified)", "values": [{"measurement": "TGI", "setting": "HOP-62 NSCLC", "value": "57.5 nM and < 5 nM"}, {"measurement": "TGI", "setting": "SK-MEL-2 melanoma", "value": "75.2 nM and < 5 nM"}, {"measurement": "TGI", "setting": "ACHN renal", "value": "71.7 nM and < 5 nM"}, {"measurement": "TGI", "setting": "BT-549 breast", "value": "583 nM and < 5 nM"}, {"measurement": "TGI", "setting": "SF-268 CNS", "value": "89.5 nM and < 5 nM"}, {"measurement": "TGI", "setting": "NCI-H23 lung", "value": "60.3 nM and < 5 nM"}, {"measurement": "TGI", "setting": "A549 NSCLC", "value": "71.1 nM and < 5 nM"}, {"measurement": "TGI", "setting": "SK-MEL-28 melanoma", "value": "77.6 nM and < 5 nM"}, {"measurement": "TGI", "setting": "OVCAR-5 ovarian", "value": "116 nM and < 5 nM"}, {"measurement": "TGI", "setting": "M14 melanoma", "value": "137 nM and < 5 nM"}, {"measurement": "TGI", "setting": "SN12C renal", "value": "75.3 nM and < 5 nM"}, {"measurement": "TGI", "setting": "MCF7 breast", "value": "224 nM and < 5 nM"}, {"measurement": "TGI", "setting": "HCC-2998 colon", "value": "51.3 nM and < 5 nM"}, {"measurement": "TGI", "setting": "LOX IMVI melanoma", "value": "54.1 nM and < 5 nM"}, {"measurement": "TGI", "setting": "HOP-92 NSCLC", "value": "50.1 nM and < 5 nM"}, {"measurement": "TGI", "setting": "EKVX NSCLC", "value": "131 nM and < 5 nM"}, {"measurement": "TGI", "setting": "UACC-62 melanoma", "value": "117 nM and < 5 nM"}, {"measurement": "TGI", "setting": "PC-3 prostate", "value": "93.7 nM and < 5 nM"}, {"measurement": "TGI", "setting": "786-0 renal", "value": "58.3 nM and < 5 nM"}, {"measurement": "TGI", "setting": "SK-OV-3 ovarian", "value": "51.5 nM and < 5 nM"}, {"measurement": "TGI", "setting": "MOLT-4 leukemia", "value": "325 nM and < 5 nM"}, {"measurement": "TGI", "setting": "T-47D breast", "value": "54.4 nM and < 5 nM"}, {"measurement": "TGI", "setting": "KM12 colon", "value": "58.4 nM and < 5 nM"}, {"measurement": "TGI", "setting": "TK-10 renal", "value": "55.2 nM and < 5 nM"}, {"measurement": "TGI", "setting": "CAKI-1 renal", "value": "223 nM and 50 µM"}]}
{"smiles": "O=C1NC(c2cccc3ccccc23)Nc2ccccc21", "note": "(stereo unspecified)", "values": [{"measurement": "TGI", "setting": "K-562 leukemia", "value": "142 nM and > 59.7 µM"}, {"measurement": "TGI", "setting": "SK-MEL-5 melanoma", "value": "109 nM and 2.1 µM"}, {"measurement": "TGI", "setting": "HCT-116 colon", "value": "929 nM and 9.53 µM"}, {"measurement": "GI50", "setting": "MDA-N", "value": "2.12 nM and 21.8 nM"}, {"measurement": "TGI", "setting": "SR leukemia", "value": "45 nM and 1.39 µM"}, {"measurement": "TGI", "setting": "MOLT-4 leukemia", "value": "451 nM and > 43.9 µM"}, {"measurement": "TGI", "setting": "NCI-H226 lung", "value": "83.9 nM and 1.72 µM"}]}
{"smiles": "CC[C@H](C)[C@H](NC(=O)[C@H]1CCCCN1C)C(=O)N(C)[C@H](C[C@@H](OC(C)=O)c1nc(C(=O)NC23C4C5C2C2C3C4C52C(=O)OC)cs1)C(C)C", "note": "(stereo partly specified)", "values": [{"measurement": "TGI", "setting": "NCI-H522 lung", "value": "42.8 nM and < 2.5 nM"}, {"measurement": "TGI", "setting": "OVCAR-3 ovarian", "value": "45.1 nM and < 2.5 nM"}, {"measurement": "GI50", "setting": "SR leukemia", "value": "0.159 nM and 2.5 nM"}]}
